Some of the results follow. At the low end of the ranking the order means little. Measured with an extract: partners may take part in the binding.

Data on 93 sequences can be found in article PMC10726135.

The target of this experiment is T1, HNF4alpha2 (COS-7 nuclear extract) (UniProt P41235).
T1 sequence: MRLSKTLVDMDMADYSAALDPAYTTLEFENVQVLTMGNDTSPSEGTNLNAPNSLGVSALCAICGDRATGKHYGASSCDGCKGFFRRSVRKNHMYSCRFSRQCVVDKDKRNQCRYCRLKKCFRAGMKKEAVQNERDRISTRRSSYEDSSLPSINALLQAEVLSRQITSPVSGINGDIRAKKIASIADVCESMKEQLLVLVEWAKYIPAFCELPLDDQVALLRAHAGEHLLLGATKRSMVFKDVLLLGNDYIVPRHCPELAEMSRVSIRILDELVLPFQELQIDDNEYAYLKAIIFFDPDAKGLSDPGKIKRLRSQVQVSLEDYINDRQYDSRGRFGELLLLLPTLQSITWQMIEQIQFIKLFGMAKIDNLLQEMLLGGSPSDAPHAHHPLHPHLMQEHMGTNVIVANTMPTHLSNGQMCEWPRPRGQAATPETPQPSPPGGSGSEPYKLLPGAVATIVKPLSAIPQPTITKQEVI
The experiment in a line: protein-binding microarray. The settings on record: COS-7 nuclear extract on double-stranded Agilent 4x180k PBM; binding buffer, salt, pH and temperature not given; high values mean tight binding; double strand, one strand shown; sequences stand for … in …GCCTAGGGAGATTAGAGTATCGGTCGA
For the sequence GCAGCTTGTACCCTTCTTTCCACCCTGTTG, the binding signal (log2 normalized intensity) worked out at 1.78. To AACACATACCTTAAATAAGAGACTCAGGCC belongs -0.691.

Consider TGTGCACAGTCCACAGAAACGCAGTCCTGA, for which the binding signal (log2 normalized intensity) was -1.19. The figure for TCTTGTGGTAATCTCTTTTGTGTTAGAGGG is 1.39. To CCTCTGGACAAGGGAAGCGTCAATGCCCCA belongs 2.01; to AGCATGGCCCTTTGCAGCCCGAGCTGCTGG, -1.13; to AGAGAGAGGGAGACAACCTTTGGTCACTTG, 3.67. The figure for GAGAGCATTCTGCTGCTCTTTAATCCTAAT is -1.16; for TGGAGATAACACAACCCCTACTGTACCCTA it is 1.49. As to TCACCTGGCAAGGCAGCCTCAGCCACACGC, the binding signal (log2 normalized intensity) is -1.18. To AGCTGTGCCCCAGTCCTTCAGTCCTTCCCC belongs 2.79; to CTCTCTGTGTCACATACACCTGCGTGTACT, 1.55; to AGAACTAGCCAGACCTGTTCCTCTGCCCCT, 2.4. To GCATGGAATGCAGGAGATCCAGTAGGGCGT belongs -1.16; to GCCCTCCCAGCCTATTAACCCCAAATTCCT, 3.91; to ATGACCTTTGACTGAGATGGGAGCAGTGCT, 2.23.

As to GACGGCGGATCCTCCCAGCCTGGAGGAGGG, the binding signal (log2 normalized intensity) is -0.864. The figure for TCAGTAAGGAGAGGGGGCGGGGAGAGGGAA is -1.14; for TGCCATTCTTCCAGTTGTGTGCACAAGAGG it is 1.7.

AAAGCACTTTGCCCCCAAGAAAAGGTTCCT: the binding signal (log2 normalized intensity) was 3.13.

Turning to AGATCCATTGCATGTGCATTTCACAATAGG, the binding signal (log2 normalized intensity) was found to be 1.22.

For ACTGTTTGGCCTATGGGAAAACAGGCTCAG, the binding signal (log2 normalized intensity) is -1.14.

For TTTAACTCTTTATCTTTCTCCTACAGCCTG, the binding signal (log2 normalized intensity) was -0.791. The figure for GACTACAAATTCCTCAATCCAGTCATCTCA is -1.14; for ACCTTTGACCCTTTATAATCCCCTATGCTC it is 4.17; for ACTTTTGGCCATCGCACGAGCAAGTTTATT it is 0.189. To ACCCTGAATGTGTGCTGGCCTGGTTCCTTC belongs 0.887; to TTTGAAGCAAAGCCTTTGAGCAGATGGAAG, 0.0298; to AACATCTGTATTTAACTTTTGGGATCAGCA, 1.17.

As to CCTGTTCTTTTGAGCTGTGGTTAAGACTCA, the binding signal (log2 normalized intensity) worked out at 0.608. The figure for TCCTAGGGAAGAAACATTCTGATCAAATAG is 0.81. As to CTGCGTAACTTACAGTGCACTTTGACCGCT, the binding signal (log2 normalized intensity) came to 7.14. The figure for CTCTGCAGAGGCTTCCTCTTTGGTGCAAAG is -0.855; for ATATTTGTGATTTGAAATTTGTCCTGGTCA it is 2; for TATTGTGAGATTACGTAAGTGAAAGTACAC it is 1.65.

For the sequence CAAATGATGTCTCTCATTGGAATGAGCCTC, the binding signal (log2 normalized intensity) was 1.19.

Turning to TGGTTTTTGTTGTTGAGCAAATCATAGTGT, the binding signal (log2 normalized intensity) turned out to be 2.25. To TGGCAGTGAAGGAACTATTGGATTCCCCAA belongs 0.825.

In the case of TGGGCAGTGCAGTATGCGCTCTGGGAAACA, the binding signal (log2 normalized intensity) is -0.737. The figure for AACCCATGGGAAGCTTCACAAAGGGCTGAG is -1.18. The figure for GGAGCAGCCTAGTAAAAGGTAGATACTATA is -1.18; for GGAAGAACTGGTTCTGTGGAATTTGTGCTT it is 1.93. To GGCGCAATCTCAGCTCAATCTCTGTCGCCC belongs -1.12. GCGCCACTGCGTCCAGCCACAATTAATGTA: the binding signal (log2 normalized intensity) was -1.06. For TCAAATGCACCAAAAATATCTTTGTCTCAG, the binding signal (log2 normalized intensity) was -0.76.

As for TCTTTAAGACAAGTGTCCCTCAAACTGAAG, the binding signal (log2 normalized intensity) was determined as 1.28. The figure for GCTGAGTCCCTGCTTGATAAGACTGACAAC is -1.05.

GCCGCCACCCGGTTGGCGCCAATACCTGCC: the binding signal (log2 normalized intensity) is -1.12. The figure for AAACATGCGCATGTTCCCACGAAACCCTAA is 1.67; for TGCAAACTCCAGCATGAGGGGGTGGACTGA it is 0.593.

With TGGTAGCATGGCTCAGTCCAAGTCCAAAGG, the binding signal (log2 normalized intensity) was 4.18. Take CTTTGACCATCCACGGATGCATGATTGCTC: the binding signal (log2 normalized intensity) is -1.11. To GCACACCGGACTGCGTTTTTTCCGAACGCC belongs -1.07; to AGAGGGGAAGGATGAATTTAAAAAATTCTA, -1.1; to AAGCTCATGAAGCTTCCCCTTTAACCAATA, 1.25. The figure for GGGAGTTGTAGTTTTTTGGGCCCCTAGACT is 0.531.

With TTAATGTCAAACTGATCAGAAGTGGTTACA, the binding signal (log2 normalized intensity) was 0.594. As for ACTTTGGTTCACCGCTCACTGCTCCAGCCA, the binding signal (log2 normalized intensity) is -1.09. The figure for CACATTGCAGTATGCCCCCCCACCCCACAC is 6.96; for CTAGATTCCAGGAAGAAAGATTGAAGTCTG it is 0.476.

With ACTTTGACCTTGTTTTCAATGACTACCTGT, the binding signal (log2 normalized intensity) was 1.84. The figure for ATTACCTGTTCTAAGCACCTCTGCTTATCT is -1.11; for TGCACATGAGTTCCCGGCAAGCCGACTTAC it is -1.06; for TTCTAGATGACCCCTCTCTACTGGTAAGCA it is 2.56.

As for GCATGCACTGGGGTTTAAAGTTTATAGGCT, the binding signal (log2 normalized intensity) worked out at 0.415.

On to GGTTTTTGTCAAAGATAGTTGTAGTTACAG, for which the binding signal (log2 normalized intensity) stood at 1.78. The figure for GTGGGGACCTGGACTCCCAAGATGGATTGG is 0.682; for TGTGGGTGAGGCTGTGATGTTTGCCCATGA it is 0.829. To AGGCAAGGAATTTGGAATTCCCTGCAAGGA belongs -1.18; to ATAGAGGAGTCAAGCAAACACACTTGCTCT, -1.09.

With GTACAAACACATACCTTAAATAAGAGACTC, the binding signal (log2 normalized intensity) is -1.16. The figure for CGTCTAAACAAACTCCCAGTCTGTTATCAG is -1.06; for AAAGTTCATCTGGGCTTTAGGTTTGGTGTT it is 1.97. To TCAAGGGTCATTTGTTTTTACAGACAGGCA belongs 1.81; to GCCTGGCCAAGTTGAGGAGTTTGTACTTTA, 3.24. To GTAACAAAGGAAAGAGCTAACATATACCAT belongs -1.39; to TCTACCTTTGGCCTGGGGATTTACTAAAGT, 0.556.

Take CACACTGTTTGCGCAAACTATCTAAACAGA: the binding signal (log2 normalized intensity) was -0.673.

For AGTGAGCCAAGGTACCCTGGCTTGTAATTC, the binding signal (log2 normalized intensity) was -1.12.

Take CCCCCTCCTCACCCCACTTTGGTTCACCGC: the binding signal (log2 normalized intensity) came out at 4.22.

On to CCCTATTTCCCTCTGTGCCCGAGCTGTCTT, for which the binding signal (log2 normalized intensity) stood at 1.42. The figure for TCCTGAAGCCCTTCTTCTGGAGCCTCAGTA is -1.15; for CCTTTCGGTGGGACTAAATTCTGCGGCGGA it is -0.759; for AAGCTGCTGCCAAGCGTCAGTCATACAGAG it is -1.14.

For GTCAGAACTGTGGACTCGCTGCCTTTTATC, the binding signal (log2 normalized intensity) stood at 0.745. To CCTACGCTACGCACCAGGCATACTCCTCCT belongs -1.08; to AGATAAGACAAGCTCTGTTTGTTTTGTTAC, 1.3. GAGTGCCCTTGCCGAGAGCGGCTCGTTGGT: the binding signal (log2 normalized intensity) is -1.11. Consider TTTGTATGGCAGGGGTTAACCTCTATTGAC, for which the binding signal (log2 normalized intensity) was determined as 2.16. The figure for AATCTCCAACAAGGCAGGAGATTCCACATT is -1.09. The figure for CCTGAGAGGCCAGTTTGACCTTTGCATTCT is 7.56.

TTGCCCACATTCACACAATCAGTGTGTTGA: the binding signal (log2 normalized intensity) was -0.0239. To CCAAAGTCCATGCTATTAAGCACTAGAAAG belongs -1.01.
